In PMC4336329 (PLoS ONE, 2015):
In all, about 310,000 compounds went through this assay and about 2,200 (0.71%) showed an effect of 50% or more. Effects have a minus sign here. The list shows a part of the results.

molecular target: human ether-à-go-go-related gene (hERG) potassium channel (human, UniProt Q12809); assay: primary screen, population patch clamp on CHO cells stably expressing hERG
Sequence (Q12809 whole entry, looked up): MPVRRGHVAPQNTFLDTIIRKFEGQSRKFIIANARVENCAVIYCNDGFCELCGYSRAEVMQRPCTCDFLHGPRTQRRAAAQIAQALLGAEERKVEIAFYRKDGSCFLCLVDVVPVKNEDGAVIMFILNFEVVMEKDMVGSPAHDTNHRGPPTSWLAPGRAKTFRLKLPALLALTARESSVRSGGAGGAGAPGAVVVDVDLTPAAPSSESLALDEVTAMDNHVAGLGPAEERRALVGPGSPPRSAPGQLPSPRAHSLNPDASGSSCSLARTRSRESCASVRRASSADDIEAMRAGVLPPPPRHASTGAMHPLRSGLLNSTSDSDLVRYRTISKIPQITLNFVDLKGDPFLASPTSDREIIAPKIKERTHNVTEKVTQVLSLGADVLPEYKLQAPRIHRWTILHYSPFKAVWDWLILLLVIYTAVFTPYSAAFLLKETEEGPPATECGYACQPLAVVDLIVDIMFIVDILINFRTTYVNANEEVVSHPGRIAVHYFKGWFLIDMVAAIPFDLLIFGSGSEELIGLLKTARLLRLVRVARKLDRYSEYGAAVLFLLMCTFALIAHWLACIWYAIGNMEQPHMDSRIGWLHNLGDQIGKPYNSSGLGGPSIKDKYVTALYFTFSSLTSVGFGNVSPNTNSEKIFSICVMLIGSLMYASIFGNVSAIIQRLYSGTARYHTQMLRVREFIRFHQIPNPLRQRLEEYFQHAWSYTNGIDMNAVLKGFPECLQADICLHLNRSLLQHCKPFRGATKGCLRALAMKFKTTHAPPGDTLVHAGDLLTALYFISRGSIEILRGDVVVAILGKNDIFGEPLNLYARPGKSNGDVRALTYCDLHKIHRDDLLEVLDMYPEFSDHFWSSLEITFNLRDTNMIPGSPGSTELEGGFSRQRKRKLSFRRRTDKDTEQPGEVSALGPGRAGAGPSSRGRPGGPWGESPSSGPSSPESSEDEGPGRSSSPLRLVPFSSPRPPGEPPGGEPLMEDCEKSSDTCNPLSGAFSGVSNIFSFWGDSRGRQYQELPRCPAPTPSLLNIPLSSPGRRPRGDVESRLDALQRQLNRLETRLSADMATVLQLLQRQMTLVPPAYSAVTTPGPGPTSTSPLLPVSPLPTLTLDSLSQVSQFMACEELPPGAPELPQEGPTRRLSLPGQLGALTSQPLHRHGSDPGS

SMILES | hERG current change (%, negative = inhibition) at 1uM [%]
CCSc1nc(N)c2c(C)c(C)sc2n1 | -1.83
CC1=C(C(=O)NCc2ccccc2)C(c2cccnc2)n2ncnc2N1 (stereo not shown) | 8.67
CCn1c(COc2ccccc2C)nnc1SCC(=O)NCc1ccccc1 | 2.58
CCCCn1cnc2c(=S)nc(N)[nH]c21 | 10.8
COc1ccc(C(=O)NCc2nnc(SCC(=O)NC3=NCCS3)n2C)cc1 | 5.54
Cc1nc(N2CCN(c3ccccc3F)CC2)[nH]c(=O)c1C | 17.4
CCN(CC)S(=O)(=O)c1ccc(C)c(NC(=O)COC(=O)C=C(C)C)c1 | 10.6
O=C(CN1CCN(C(=O)c2ccco2)CC1)Nc1ccccc1-c1ccccc1 | -15.7
O=C1N/C(=C\c2ccc(N3CCOCC3)c(F)c2)C(=O)N1Cc1ccccc1 | 20
Cc1cc(C)cc(NC(=O)CN2CCN(c3ccccc3)CC2)c1 | 11.2
CCOC(=O)Cc1csc(NS(=O)(=O)c2ccc(C(F)(F)F)cc2)n1 | 16.1
O=c1c2c(-c3ccc(Cl)cc3)csc2nc2n1CCC2 | -6.3
CC1CN(C(=O)CCC(=O)NCc2ccccc2)c2cc(Cl)ccc2O1 (stereo not shown) | 0.521
COc1c(Cl)cc(C(=O)Nc2ccccc2C(=O)O)cc1Cl | 15.7
COc1ccccc1CNS(=O)(=O)c1ccc(-c2cc(C)no2)cc1 | 16
CCOc1ccc(CCNC(=O)C2CC(=O)N(CCc3ccccc3)C2)cc1OCC (stereo not shown) | 15.7
CCC(=O)Nc1ccc2c(c1)ncn2CCc1ccccc1 | 8.64
COC(=O)N1CCN(S(=O)(=O)c2ccc(F)cc2)CC1 | 0.95
O=C(Nc1ccc(F)cc1F)c1ccc2c(c1)OCCO2 | 27.6
Cc1ccccc1NC(=O)CNc1ccccc1C(=O)NCc1ccco1 | 11.3
CCOc1ccc(OCC)c(NC(=O)CCS(=O)(=O)c2ccc(Br)s2)c1 | 5.87
CN(c1ccccc1C(=O)Nc1ccccc1C(=O)NCc1ccco1)S(C)(=O)=O | 5.47
CCc1cccc(OCC(=O)Nc2ccc(C)c(S(=O)(=O)N3CCCCCC3)c2)c1 | 2.35

SMILES | hERG current change (%, negative = inhibition) at 1uM [%]
CCOCCCN(C)C1CCN(C(=O)c2oc3ccccc3c2NC(=O)COc2ccc(F)cc2)CC1 | -85.9
N#CCCn1ncn(-c2ccccc2)c1=S | 8.18
Cc1ccc(NS(=O)(=O)c2ccc3c(c2)NC(=O)CO3)c(C)c1 | 17.3
Cc1ccc(CNCC(O)(c2ccc(F)cc2)c2ccc(F)cc2)cc1 | 8.55
Cl.OC(c1ccccc1)(c1ccccc1)C1CCCN1 (stereo not shown) | 0.759
CC(C)(C)c1csc(NC(=O)C2=COCCO2)n1 | 11.3
CC1=NN(C(C#N)c2ccc(F)cc2)C(c2ccccc2)C1 (stereo not shown) | 12
CC1(C)Cc2c(sc3[nH]c(=S)[nH]c(=O)c23)CO1 | 10.4
Cc1ccc(-c2csc(NC(=O)c3ccc4c(=O)n5c(nc4c3)CCCCC5)n2)cc1 | 7.87
COc1cc(NC(=O)c2ccccc2-c2ccccc2)cc(OC)c1OC | 4.63
COc1cccc(/C=C2\SC(=S)N(CCC(=O)NCCc3ccc(O)cc3)C2=O)c1 | 3.91
Cc1ccc(NS(=O)(=O)c2cccc3nsnc23)cc1[N+](=O)[O-] | 13.9
COc1ccc(NC(=O)CSc2nnc(Cc3ccccc3)c(=O)n2N)cc1 | 1.91
S=c1[nH]cc(-c2ccccc2)n1-c1cccc(Cl)c1 | 6.39
Cc1nnc(N/N=C/c2ccc(O)c([N+](=O)[O-])c2)[nH]c1=O | 15.4
CCOc1cccc(CNC2CN3CCC2CC3)c1.Cl (stereo not shown) | 1.48
COC(=O)c1nc(-c2ccccc2)n[nH]1 | -3.45
Cc1noc(C)c1COC(=O)Cc1ccc(Br)cc1 | 11
CCCC1=C(C(=O)OCC)C(c2ccc(OC)c(C)c2OC)C(C#N)=C(N)O1 (stereo not shown) | -0.885
O=C(NCN1C(=O)C2C3C=CC(C3)C2C1=O)Nc1ccccn1 (stereo not shown) | 11.6
COc1ccc(Cl)cc1Nc1nc(C)cc(=O)[nH]1 | 4.87
Cc1ccc(C)c(N2N=C(C(=O)Nc3cccc(S(=O)(=O)N4CCCCC4)c3)CCC2=O)c1 | -0.476
CCN(CC)C(=O)CC(c1ccc(N(C)C)cc1)c1c(OC)cc(OC)c2c(-c3ccccc3)cc(=O)oc12 (stereo not shown) | 9.2
